PMC12040169 (PLOS Biology, 2025)
The list shows a part of the results.

system: T1, C. trachomatis L2/434/Bu expressing GFP (CTL2-GFP); design: species or system HeLa; C. trachomatis total inclusion area by high-content imaging, normalised to DMSO; settings: total inclusion area; 28.5 h, 10 µM; inhibitor
T1 construct: L2/434/Bu GFP intracellular growth in HeLa cells
Summary of the method: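 Bulk GFP and resorufin signals were read first. Wells were then fixed, stained with Hoechst and imaged to detect GFP inclusions and host nuclei. MICs followed the previously described calculation.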

| SMILES | % of control remaining |
| --- | --- |
| Oc1cc2nnnn2nc1-c1ccccc1 [CBK019550] | 54.7511 |
| COc1ccc2[nH]c3c(c2c1)CCN(C(C)=O)C31CCN(CCOc2ccccc2)C1 (centres unmarked) [CBK039626] | 78.625 |
| CSc1ncc(CNC(=O)C2CCOc3ccccc3C2)n1C (centres unmarked) [CBK307611] | 91.4686 |
| CCN1C(=O)COC[C@@H]1[C@H](O)c1ccc(NC(=O)Cc2ccc(OC)cc2)cc1 [CBK289676] | 115.712 |
| CN(C)S(=O)(=O)c1ccc(Cl)c(C(=O)Nc2cccc(C(=O)O)c2)c1 [CBK265727] | 122.111 |
| c1ccc(CCN2CCN(CCC(c3ccccc3)c3ccccc3)CC2)cc1 [CBK126432] | 78.6388 |
| N#Cc1ccccc1-c1ccc(CSc2cccc(F)c2)cc1 [CBK002920] | 79.9048 |
| c1cc(CCCOc2cncc(N3CCCC3)n2)ccn1 [CBK115760] | 113.498 |
| O=C(NCc1nnc(-c2cccs2)o1)C1(c2ccc(F)cc2)CC1 [CBK284638] | 99.3997 |
| O=C(O)CCC(=O)Nc1ccc(Br)cc1C(=O)c1ccc(Cl)cc1 [CBK262601] | 93.4715 |
| COc1ccc(C(C)C)cc1-c1cnc(N)c(NCc2ccncc2)n1 [CBK063695] | 133.275 |
| CCOC(=O)c1cnc(N2CCOCC2)nc1NCCc1c[nH]c2ccccc12 [CBK093605] | 100.337 |
| O=S(=O)(c1ccc(Cl)cc1)N1CCN(S(=O)(=O)N2CCOCC2)CC1 [CBK266878] | 105.085 |
| CC(=O)c1ccc(-c2nc(-c3occc3C=O)cnc2N)cc1 [CBK064081] | 106.005 |
| CCn1ncc(CN(CCN(C)C)Cc2cccs2)c1C [CBK282958] | 88.7983 |
| O=C(c1ccc(F)cc1)N1C2CCC1CC(O)(c1ccccc1F)C2 (centres unmarked) [CBK121719] | 86.2013 |
| CC(C)Oc1cccc2cccc(C(O)CN(C)C)c12 (centres unmarked) [CBK009892] | 108.653 |
| O=C(CN1C(=O)N2CCCN=C2c2ccc(Cl)cc21)NC1CC1 [CBK284388] | 86.4539 |
| CC(=O)c1ccc(NC(=O)CSc2ncccc2C(=O)O)cc1 [CBK299798] | 109.343 |
| COc1ccc(NC(=O)CSc2nc(N)cc(O)n2)c([N+](=O)[O-])c1 [CBK267904] | 72.9155 |
| COc1cc(C(CC(=O)O)C(=O)O)c([N+](=O)[O-])cc1OC (centres unmarked) [CBK268541] | 107.811 |
| O=C(Nc1ccc(I)cc1)c1ccc(CN2CCc3ccccc3C2)cc1 [CBK262672] | 111.541 |
| O=C(O)CC(NC(=O)c1ccco1)c1ccc(F)cc1 (centres unmarked) [CBK057988] | 97.4106 |
